Some of the results follow.
tested on: PF3D7_0420300 AP2 domain 1 (GST-tagged); experiment: gcPBM binding intensity (ln(normalized median fluorescence intensity)); higher = stronger DNA binding
How it was run: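 GST-fused DNA-binding domains of P. falciparum, expressed in E. coli, were applied at about 25 μg on average for 1 h to an Agilent 4 × 180k array of primer-extended double-stranded 36-bp intergenic genomic probes and negative controls. Binding intensity is the highest Masliner-normalised natural-log median intensity across replicate spots of either probe orientation, measured with Alexa488 anti-GST antibody and a 488 nm scan.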

| Sequence | gcPBM binding intensity (ln) |
| --- | --- |
| ATAAAAATTGAAACATGTACACATATTCATTTTATA [XGTACX_site7968] | 9.14 |
| TCGTGTGAAAATATTACACACATTTACTATAGTATC [CACACA_site7590] | 9.48 |
| ATATATTTTTACCATACACACATATAATAAATATAT [CACACA_site3722] | 9.52 |
| AAAAAAAAAAAAAAATGTACATATATATATATATAT [XGTACX_site876] | 9.15 |
| ACATATACAAGACACACACACAACGTTTTAATAAAT [CACACA_site7017] | 10.2 |
| ATAATAATATTGTGTACACAATAATTTGTCAAATCA [CACACA_site6019] | 9.06 |
| GTATATTTTAATATGACACACATATTATATATATAT [CACACA_site2483] | 9.4 |
| AATCAATTAATATTAGCATAAAATTTTATTATTTTG [XGTACX_negctrl_site479] | 9.19 |
| TGACATAAAAAATATACACACTATAATATATATACT [CACACA_site4898] | 9.43 |
| ATAATATGTATGGTCACACAGACAAGGAAAGAATAA [CACACA_site5164] | 9.45 |
| TGTATCCATATTTGTTCACACACACCCATATTTATA [CACACA_site9190] | 10 |
| ATTGTTATTTATTGTGTGCGCATTAATACATACATA [GTGCAC_site9982] | 9.5 |
| TAATGTTGAGAATTTTGTACATATAGATCAATTTAT [XGTACX_site5426] | 8.97 |
| ATTTATTATGAACATACACACAAAAAAAAAAAGTAT [CACACA_site2054] | 9.96 |
| TAACTTTGAAAAGATGGTACACAATAATATATATAT [XGTACX_site8667] | 9.38 |
| TACCCATGCATTTTTGCACACACATATATATATAAA [CACACA_site1429] | 9.71 |
| AGACAGCGCACAAACACACAAACACCCACCCACATA [CACACA_site451] | 10.2 |
| ATTTTTGTACACTTCTTTTTTTTTTTTCTTTTATGT [CACACA_negctrl_site1323] | 9.88 |
| TACTTACATATAATAACACACAAGAAAAAAATAAAA [CACACA_site1033] | 9.7 |

| Sequence | gcPBM binding intensity (ln) |
| --- | --- |
| AAAAAAAAAAATAAAGAAATCAAAATTGATGAATAA [GTGCAC_negctrl_site692] | 9.18 |
| TATAAATATACACCCACACACATATATATATATATA [CACACA_site3745] | 9.66 |
| TATATAAAAAATAAATGTACACATGTAATAATAAAA [XGTACX_site2640] | 9.58 |
| TGTGTAAACATATTCACACACATAAATTCGCATATA [CACACA_site6961] | 9.54 |
| ATATGAACAAAATAAATCTCTTCAAAAATAATGTTC [GTGCAC_negctrl_site2] | 9.17 |
| TAAATGATTGCATAATGTACATATAATTTTTTTTTT [XGTACX_site1988] | 9.03 |
| TATATATATTTATGCTGTACCAAATAAGAATAGAAA [XGTACX_site7731] | 9.14 |
| ACAAAATATACAAAATGTACAAAATTTACAAAATAT [XGTACX_site6466] | 9.43 |
| AGCACAAGCACAAGCACACATTTATATATAAATACA [CACACA_site4642] | 9.42 |
| AAAGTTATAATACGTACACACCTTATCTTTTTGGCT [CACACA_site6267] | 9.47 |
| TTTATGGGTATGTTTACACACATAAAAAAATATATG [CACACA_site5646] | 9.34 |
| ATATATATGAAAATATGTACATATATATATATATAA [XGTACX_site7550] | 9.19 |
| ATATAAGTATTTTGAATGCACTTTCTTTTTTTTTTT | 9.28 |
| ACTGAAAAAAGAAATACACACATTCTGGATCATATA [CACACA_site3860] | 9.57 |
| TTATAAAATAATTAATGTACGTTTATGTGTATCGAA [XGTACX_site6117] | 9.24 |
| TATTATCTCTTATGAACACACATTTTTATTTTCAAA [CACACA_site3353] | 9.31 |
| ATATCGTATATGAGTGGTACTAATATGTAAAAAAAA [XGTACX_site7830] | 9.13 |
| ATTTTGTTCGAAAGGTGTACATATACAAAAATTATG [XGTACX_site957] | 9.25 |
| TAATAATAAAAATAAACACACATATAGATGTATATA [CACACA_site7360] | 9.46 |

| Sequence | gcPBM binding intensity (ln) |
| --- | --- |
| TCATTATTATTCCTCACACATATATATATATATATT [CACACA_site4375] | 9.49 |
| AGCACACCCACAAAAACACACACAAAGGTGTTCTTA [CACACA_site8355] | 9.6 |
| CACTTTTCATATATGACACACAAAAAATTAATAAAA [CACACA_site3639] | 9.17 |
| GCATGTATAATGGTAGTGCATATAATAATATAATAA [GTGCAC_site9548] | 9.2 |
| ATTAACACTGAAAAATGTACATATATAAATATAAGC [XGTACX_site8222] | 9.52 |
| AATATTAAAAACAAAACACACAAAAAAAAATAAACT [CACACA_site6470] | 10.1 |
| AACGATATCTGTACTACACACATTATGTCATCCTAT [CACACA_site5374] | 9.81 |
| TAAAATAATACAAAATGTACAAAATTTACAAAATGT [XGTACX_site3541] | 9.28 |
| ATGTAAATTAAACATGGTACACATTATACAAAATTA [XGTACX_site5675] | 9.41 |
| AATATAGAACAATGTTGTACATATAATAATCTTATA [XGTACX_site4671] | 9.15 |
| TTCATATATTATTATGCATGTTCATAAATTATCTAA [TGCATGCA_site896] | 9.11 |
| TTCATATAATTATATACATGCATAAATTCTAAGTAA [TGCATGCA_site622] | 9.01 |
| ATTTTATAAACAAATGAACACACAAACATATATATA [CACACA_site9036] | 9.74 |
| TACATACATAAACACACACACACATATATATATATA [CACACA_site8953] | 10.1 |
| ATTTGTGTATATTAGAGTACATAAAATTAGAGGAAC [XGTACX_site1654] | 9.54 |
| ATCAAAAGAAAACACACACACATACATATATATATA [CACACA_site3795] | 10.1 |
| ACCCATTCAAATTTCGCACACACATACAAAAAAAAA [CACACA_site3094] | 9.76 |
| CATTAATGACATGATTGTACATAAGCTTTTTTACAT [XGTACX_site1888] | 9.28 |
| AAAAGGAAAATACTAGCACACAATATATAATAAACA [CACACA_site285] | 9.62 |
